Data published in the supplement of paper PMC3724861.
Some of the results follow.

Each sequence was assayed on T1, Caupolican (Caup) homeodomain DNA-binding domain (assay: PBM E-score (8-mer, recovered from the published 9-mer minima) (E-score (dimensionless, -0.5 to 0.5)); Drosophila protein; higher = stronger relative binding preference, active = 0.31 or more).
T1 sequence: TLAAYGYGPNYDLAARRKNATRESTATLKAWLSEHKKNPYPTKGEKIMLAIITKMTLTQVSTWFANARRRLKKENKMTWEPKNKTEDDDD
Method in brief: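 Caup's homeodomain DNA-binding domain (residues 214-303) was produced by in vitro transcription and translation and applied at 100 nM to custom-designed protein binding microarrays. Each value is an enrichment score giving relative binding preference for a short DNA word; higher means stronger. Published 9-mer scores were the minimum of their two constituent 8-mer scores, and the 8-mer values were recovered from those minima. A cutoff of 0.31 marks candidate binding sequences.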

Sequence	PBM E-score
AGAGACCG	inactive: -0.177
TACAATAA	inactive: 0.245
TACCATAA	inactive: 0.127
AGCGACGA	inactive: -0.0369
GGGACGAC	inactive: -0.115
AAAGGTCA	inactive: -0.0426
ATGTTGCA	≥ 0.279
GTGCCACA	inactive: -0.0988
CCCGGTAG	inactive: -0.0662
ATCTTACA	inactive: 0.233
TTGGGAAA	inactive: 0.0459
CTCATCCA	inactive: 0.0394
CGTAAAGC	inactive: -0.107
TAATATCA	inactive: 0.177
GACGAGAA	inactive: 0.0608
GGCGCACA	inactive: -0.14
AGAAAAGC	inactive: -0.0456
AGGACACT	inactive: -0.00147
CCAATCGG	inactive: -0.153
TACTAGGA	inactive: 0.165
ACCGAGCC	inactive: -0.0985
CGGCACTA	inactive: -0.123
ACTATTCG	inactive: 0.0513
CTGACATA	inactive: 0.22
CTTTCGTC	inactive: -0.0286

Sequence	PBM E-score
AAATCTTA	inactive: 0.0578
CCGCATAA	inactive: -0.0168
CCAAGAAG	inactive: -0.0481
CGATTCGC	inactive: -0.0138
ACGTAGAC	inactive: 0.0303
GCCGACGA	inactive: -0.104
ACTATAAC	inactive: 0.205
CGAACTAC	inactive: 0.121
AGAGGTCC	inactive: -0.107
CTGAGAGC	inactive: -0.147
AGATGCGC	inactive: -0.0446
ACAGTAGC	inactive: 0.0447
GATTGCAA	inactive: 0.0474
ATGTGGCC	inactive: -0.0518
AGTGTGGC	inactive: -0.152
GGAACCCA	inactive: -0.0548
CATTCCAG	inactive: -0.0271
ATCTTGTC	inactive: 0.308
CGCATGGA	inactive: -0.0924
CATTATGG	inactive: -0.0101
CCTTCGCG	inactive: -0.168
CTAACCGA	inactive: -0.0177
CTCTCTGA	inactive: -0.0681
CATTGTTA	inactive: 0.27
AGAACCAA	inactive: -0.021

Sequence	PBM E-score
ACCCAATC	inactive: -0.0831
CTGGGCGC	inactive: -0.207
AGGATTGA	inactive: 0.0816
CAATTGGG	inactive: -0.0977
AGCAATCG	inactive: 0.124
GACTGGCA	inactive: -0.134
AACGCCAA	inactive: -0.004
GAGTGATA	inactive: 0.0675
AGAAGGAG	inactive: -0.134
ATGGCCGG	inactive: -0.214
CCCGCTCA	inactive: -0.198
AGGCGCAG	inactive: -0.154
TGCTCTAA	inactive: 0.0238
CGCTATGC	inactive: -0.174
GATATATA	inactive: 0.128
CAGTCTAC	inactive: -0.0372
ACTACTTC	inactive: 0.0868
AGGGAAAT	inactive: 0.00808
CGGCAACC	inactive: -0.158
GAATGCTA	inactive: -0.0409
CCTTCATC	inactive: -0.175
GGTATAAA	inactive: -0.0131
TAACATAA	active: 0.327
GACCGCTA	inactive: -0.177
ATTCTGTG	inactive: 0.132

Sequence	PBM E-score
GCCATTCC	inactive: -0.105
ACACCACC	inactive: 0.0972
GGCTTCTA	inactive: -0.0837
CGAAGCTC	inactive: -0.156
TACCACGA	inactive: 0.148
GGACTCGA	inactive: -0.0612
ATTGCGCA	inactive: -0.0488
ATTGGTTC	inactive: 0.0951
ATACGGTC	inactive: -0.0486
CGACACAC	inactive: 0.217
AAGCGAGG	inactive: -0.161
ATGCAGCC	inactive: 0.00431
AGACAGAG	inactive: 0.0189
CGGAATGA	inactive: 0.0236
CAAAACCG	inactive: -0.0536
GATCGAGA	inactive: 0.0375
GACTAAAC	inactive: -0.0493
TCTATACA	inactive: 0.147
CAAGCGTG	inactive: 0.0729
CGTACTAA	inactive: 0.193
AGTGGGCG	inactive: -0.124
AATCCGAC	inactive: 0.0721
GGTGGCCA	inactive: -0.164
GAAAGATA	inactive: 0.0349
ACGCTTCC	inactive: -0.131

Sequence	PBM E-score
ACAATGGA	inactive: 0.181
CGCTCCGA	inactive: -0.147
ACCCCCCA	inactive: -0.272
CGACTGAA	inactive: -0.136
CTGTACTC	inactive: 0.082
CGATTAGA	inactive: 0.105
GGTACCTA	inactive: 0.0649
ATCTTAGG	inactive: -0.15
AACCTCGT	≥ 0.149
AGACTAGG	inactive: 0.0181
CGGATAGA	inactive: 0.0127
ATCAGATA	inactive: 0.16
GTGGTGGA	inactive: -0.109
CCCACAGA	inactive: -0.0301
ACCGCGGA	inactive: -0.137
ACTACCAA	inactive: 0.167
AGATAACC	inactive: -0.0458
AGTGAGAG	inactive: -0.0405
CAGAGACG	inactive: -0.0652
GCCCAGCA	inactive: -0.229
CGTTGACA	inactive: 0.221
GAAAGAAC	inactive: -0.00858
ACGGGGAC	inactive: -0.169
AGCTTTAC	inactive: -0.0134
AGGAAGAA	inactive: -0.0327

Sequence	PBM E-score
CTTGGCCA	inactive: -0.00859
CGGGTAGC	inactive: -0.229
ATATAGCC	inactive: 0.0657
GCCAGAAC	inactive: -0.0747
CTTGGCAC	inactive: -0.124
ACGTTTGA	inactive: 0.104
AGTTATAG	inactive: 0.0939
ATTACCTA	≥ 0.0994
CCCAGGCC	inactive: -0.249
AGCTCGAC	inactive: -0.0593
GCGACTAA	inactive: 0.0539
CGGTTGTC	inactive: 0.185
GCCTGTAA	inactive: 0.09
ATATCTAC	inactive: 0.166
ATCTTCCA	inactive: 0.0064
AGTGTCCC	inactive: -0.0039
ATCAGGTC	inactive: 0.0488
GCTCATAA	inactive: -0.0637
AATAATCG	inactive: 0.111
AAAGTGGC	inactive: -0.146
GATGGGTA	inactive: 0.0458
ACCGGTAG	inactive: -0.112
AAACATGA	active: 0.409
TCTCTTAA	≥ 0.063
GGGCCATA	inactive: -0.148

Sequence	PBM E-score
CTTCGCAA	inactive: -0.125
TATAGCGA	inactive: 0.0118
ACGGATAC	inactive: 0.132
CACCAGCC	inactive: -0.11
CTTTGACA	inactive: 0.223
CACAAGTC	inactive: 0.0837
GGCCTGGA	inactive: -0.239
ATGCTCGA	inactive: 0.0884
ATGATAAT	≥ 0.219
CCGTCCCA	inactive: -0.179
AACCCGAA	inactive: -0.0947
TAGCACGA	inactive: 0.0496
ACCTCTTG	inactive: -0.0487
TGCTACCA	≥ 0.0527
CTACACTC	inactive: 0.0931
CCGCGTCA	inactive: -0.126
AGACCCGA	inactive: -0.108
AACCCTCT	inactive: -0.089
AGCCTAGC	inactive: -0.195
TAGCGAGA	inactive: 0.0191
ATTTGCGG	inactive: -0.0153
CCGATGCC	inactive: -0.172
CAATCCTG	inactive: 0.0513
CACTCCGG	inactive: -0.0689
CGCCGGAC	inactive: -0.199

Sequence	PBM E-score
ATGGCTGA	inactive: 0.00468
AATCGAAG	inactive: 0.134
AGCTCGTC	inactive: -0.134
TTATGAAA	inactive: 0.0421
GCTGCAAA	inactive: 0.0079
GAATTAGA	inactive: -0.0102
ACACTTTG	≥ 0.17
ACAACTTC	inactive: 0.195
CGGCCTCA	inactive: -0.2
CAGAGACA	inactive: 0.0246
CTCCCATC	inactive: -0.15
GCCACGGA	inactive: -0.18
AACAACTT	inactive: 0.2
ACACCTCT	inactive: 0.111
ATTAGTAG	inactive: 0.212
GACTATCC	inactive: -0.0569
CTCACCCA	inactive: -0.119
CCGGGTAC	inactive: -0.0624
CGGGCCCA	inactive: -0.239
AGGACCCC	inactive: -0.212
CCGATTCA	inactive: 2e-05
GTGGGAAA	inactive: -0.0925
CAACGACC	inactive: -0.0949
CCGCAAAA	inactive: -0.0913
ATTAGACC	inactive: -0.0254

Sequence	PBM E-score
AAAGCGGG	inactive: -0.178
CTCATGTA	active: 0.377
GCAACGAC	inactive: -0.0459
AATCGAAA	inactive: 0.0513
AGCAGATG	inactive: 0.0667
CCATTTCA	inactive: -0.127
TATAGAGA	inactive: 0.0379
CGCGACTC	inactive: -0.0643
CGTGACAC	inactive: 0.227
ATTTGAAG	inactive: -0.0234
GACCTACC	inactive: -0.0746
ATACCAGC	inactive: -0.0192
AGGTTGAT	inactive: 0.0309
CGATTACG	inactive: 0.101
ATATCGAC	inactive: 0.139
CGTATTCA	inactive: 0.0989
AGTTTGTA	inactive: 0.242
CGATCGGA	inactive: -0.0409
GAGACCAC	inactive: -0.0823
CAAGAGTA	inactive: 0.103
CCGACTCA	inactive: -0.0951
GCTCTCGA	inactive: -0.104
ACATAGGA	inactive: 0.22
